Reference: publication PMC12136788
Some of the results follow.

B1: chr7:27153715:27154908:-|three_prime_utr|ENSG00000122592|control|control|control (ssRNA)
RNA: GGGAGUUCUACAGUCCGACGAUCAAAAGACACCCCCAACCCCAGGCCAGCCGGCCCUGCUCUGGCGCGUCCAAAAUACUACCUAGCACAGGCCUCUGCUCGAGGCACCCCCAAACUACCUAUGUAUCCAGCCCCAGAGGGCCUCAACAGAGGAUUGAGCAUCA
B2: chr17:8173470:8173636:-|3pUTR|ENSG00000179029|msi1|FALSE|unique (ssRNA)
RNA: GGGAGUUCUACAGUCCGACGAUCUGUUUGUCUGUAUCGUCAGGUGGGAUAAUCCUUACCUGUUCCUCCUCCGGAGGGCAGAUUAGAACAUGAUGAUUGGAGAUGCAUGAAACGUGAUUAACGUCUCUGCGUAAUCAGGACUUGCAACAGAGGAUUGAGCAUCA
B3: chr1:52238154:52238269:+|CDS|ENSG00000157077|unk|total|mutant (ssRNA)
RNA: GGGAGUUCUACAGUCCGACGAUCUCUGACCGUCCCGCCAGUGUCUGUUCCCCUUCACAAUUAAAGGAUGACGGAAGUACCGGCCGAGACCCCUCCAUGUCUGCGAUUACAAGUUUAACGGUUGAUUCAGUAAUCUCAUCCCAGCAACAGAGGAUUGAGCAUCA
B4: chrX:129805617:129805718:-|3pUTR|ENSG00000188706|msi1|total|mutant (ssRNA)
RNA: GGGAGUUCUACAGUCCGACGAUCUCUUUUCCCAUCCGAUAUAUGUAAGCCGUUGCCGCCGAGAUAAUAAUUGACAUUUCUCGCCGACUACCCAGAAACUUUUUUAAUACCUGUGCCAUUCUCAAUAAGAAUUUAUGAGAUGCCCAACAGAGGAUUGAGCAUCA
B5: chr10:91630394:91630495:-|CDS|ENSG00000119938|unk|total|mutant (ssRNA)
RNA: GGGAGUUCUACAGUCCGACGAUCCUUGGACCUUAAUGAUAUCUCCUCUGCCUUAAAACACCACGAGGAGAAAAACUUGAUUUCCGAUUUCCCUCAGCCUUCAACCGAUUACUUAAGUUUCCGGAGCCACUUUCAGAAGAACUUCAACAGAGGAUUGAGCAUCA
B6: chr16:48080881:48083801:-|three_prime_utr|ENSG00000140798|control|control|control (ssRNA)
RNA: GGGAGUUCUACAGUCCGACGAUCUGAGUUUGACAAGCCUGAAGUCCUUGCAGAGAAGCCAGAUUCUGCAUUUGCGAUGUUACUAGCAGCAGAAGUCAGAUUGUAGAGGUCCUGGCGGCUGAUUCUAGAGGAGGAAGAGGCUCUCAACAGAGGAUUGAGCAUCA

target: MSI1 full-length (mouse, UniProt Q61474 1-362); experiment: nsRBNS (natural sequence RNA bind-n-seq); RBNS binding buffer (assumed for nsRBNS): 25 mM Tris pH 7.5, 150 mM KCl, 3 mM MgCl2, 0.01% Triton X-100, 500 ug/ml BSA, 20 U/ml SUPERase-In, 4 C; UNK is unkempt and MSI1 is Musashi-1; names of the RNAs are library labels; protein concentration not given here; high values mean tight binding
Chain of UniProt Q61474 (Q61474 whole entry): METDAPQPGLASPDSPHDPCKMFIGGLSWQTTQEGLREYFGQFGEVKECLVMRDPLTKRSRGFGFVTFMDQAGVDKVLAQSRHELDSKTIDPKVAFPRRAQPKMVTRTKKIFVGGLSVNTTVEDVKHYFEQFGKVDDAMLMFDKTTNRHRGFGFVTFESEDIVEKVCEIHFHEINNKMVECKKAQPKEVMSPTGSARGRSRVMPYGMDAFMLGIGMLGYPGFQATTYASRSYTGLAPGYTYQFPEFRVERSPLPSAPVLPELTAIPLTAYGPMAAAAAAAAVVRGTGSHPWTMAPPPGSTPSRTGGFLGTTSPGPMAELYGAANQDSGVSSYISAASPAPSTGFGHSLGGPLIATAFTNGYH

Row | Binder | binding signal [enrichment R]
1 | B1 | 1.05
2 | B2 | 0.433
3 | B3 | 0.373
4 | B4 | 0.608
5 | B5 | 0.264
6 | B6 | 0.754
